# Source: patent publication US6448281B1 (Boehringer Ingelheim (Canada) Ltd., priority 2000, dated 2002)
# Target: hepatitis C virus RNA dependent polymerase (NS5B) (Hepacivirus hominis (Hepatitis C virus), UniProt P26663)
# Assay: Inhibition of NS5B RNA dependent RNA polymerase activity (SPA, UMP-[5,6 3H] incorporation)
# Conditions: IC50 μM, Table 2
row,SMILES,IC50 [µM]
1,CCC(NC(=O)c1ccc2c(c1)nc(-c1ccccn1)n2C1CCCCC1)c1ccc(OC)c(OC)c1 (stereo not drawn) [Entry 2050],5 to 10
2,Nc1ccc(-c2nc3cc(C(=O)N[C@@H](Cc4c[nH]c5ccc(O)cc45)C(=O)O)ccc3n2C2CCCCC2)cn1 [Entry 2114],1 to 5
3,COc1ccc(C(NC(=O)c2ccc3c(c2)nc(-c2ncc[nH]2)n3C2CCCCC2)C(=O)O)cc1OC (stereo not drawn) [Entry 2068],5 to 10
4,NC(=O)[C@H](Cc1ccc(O)cc1)NC(=O)c1ccc2c(c1)nc(-c1ccccn1)n2C1CCCCC1 [Entry 2135],1 to 5
5,COc1ccc(-c2nc3cc(C(=O)NCCc4ccc(OC)c(OC)c4)ccc3n2C2CCCCC2)cc1 [Entry 2077],5 to 10
6,COc1ccc([C@H](NC(=O)c2ccc3c(c2)nc(-c2ccccn2)n3C2CCCCC2)C(=O)O)cc1OC [Entry 2059],1 to 5
7,O=C(N[C@H](C(=O)O)c1ccccc1)c1ccc2c(c1)nc(-c1ccccn1)n2C1CCCCC1 [Entry 2076],5 to 10
8,O=C(N[C@@H](Cc1c[nH]c2ccc(O)cc12)C(=O)O)c1ccc2c(c1)nc(Cc1ccccc1)n2C1CCCCC1 [Entry 2102],1 to 5
9,O=C(NCc1ccc(O)c(O)c1)c1ccc2c(c1)nc(-c1ccccn1)n2C1CCCCC1 [Entry 2073],5 to 10
10,COc1ccc(CCNC(=O)c2ccc3c(c2)nc(-c2ccccc2)n3C2CCCCC2)cc1OC [Entry 2004],10 to 25
11,O=C(N[C@@H](Cc1c[nH]c2ccc(O)cc12)C(=O)O)c1ccc2c(c1)nc(-c1nc3ccccc3nc1O)n2C1CCCCC1 [Entry 2115],5 to 10
12,CC[C@H](C)[C@H](NC(=O)c1ccc2c(c1)nc(-c1ccccn1)n2C1CCCCC1)C(=O)O [Entry 2017],10 to 25
13,COc1ccc(CCNC(=O)c2ccc3c(c2)nc(-c2cccc(O)c2)n3C2CCCCC2)cc1OC [Entry 2002],10 to 25

# Same assay, conditions: IC50 μM, Table 3
row,SMILES,IC50 [µM]
1,COC(=O)[C@H](Cc1c[nH]c2ccc(OCC(=O)O)cc12)NC(=O)c1ccc2c(c1)nc(-c1ccoc1)n2C(C)C [Entry 3005],1 to 5

# Same assay, conditions: IC50 μM, Table 7
row,SMILES,IC50 [µM]
1,O=C(O)c1ccc2c(c1)nc(-c1ccccn1)n2C1CCCC1 [Entry 7025],10 to 25
2,Cn1cccc1-c1nc2cc(C(=O)O)ccc2n1C1CCCCC1 [Entry 7024],1 to 5
3,CC(C)=Cc1nc2cc(C(=O)O)ccc2n1C1CCCCC1 [Entry 7003],10 to 25
4,O=C(O)c1ccc2c(c1)nc(-c1nccs1)n2C1CCCCC1 [Entry 7015],1 to 5
5,O=C(O)c1ccc2c(c1)nc(/C=C/c1ccccc1)n2C1CCCCC1 [Entry 7011],10 to 25

# Same assay, conditions: IC50 μM, Table 10
row,SMILES,IC50 [µM]
1,CN(C(=O)c1ccc2c(c1)nc(-c1ccoc1)n2C1CCCCC1)[C@@H](Cc1c[nH]c2ccccc12)C(=O)O [Entry 10063],1 to 5

# Same assay, conditions: IC50 μM, first compound table (printed title TABLE 10; Table 1)
row,SMILES,IC50 [µM]
1,O=C(NNC(=O)c1ccc2c(c1)nc(-c1ccoc1)n2C1CCCCC1)OCc1ccccc1 [Entry 1301],5 to 10
2,CCOC(=O)CCNC(=O)N1CCCC(NC(=O)c2ccc3c(c2)nc(-c2ccoc2)n3C2CCCCC2)C1 (stereo not drawn) [Entry 1217],10 to 25
3,O=C(NC1CCN(Cc2ccccc2C(=O)O)CC1)c1ccc2c(c1)nc(-c1ccoc1)n2C1CCCCC1 [Entry 1271],10 to 25
4,"CC(=O)c1cc(C[C@H](NC(=O)c2ccc3c(c2)nc(-c2ccoc2)n3C2CCCCC2)C(=O)O)ccc1O [Entry 1147, (S)-3-(3-Acetyl-4-hydroxy-phenyl)-2-{[1-(1-cyclohexyl-2-furan-3-yl-1H-benzimidazol-5-yl)-methanoyl]-amino}-propionic Acid]",1 to 5
5,COC(=O)C(NC(=O)c1ccc2c(c1)nc(-c1ccoc1)n2C1CCCCC1)c1ccc(OC)c(OC)c1 (stereo not drawn) [Entry 1003],5 to 10
6,O=C(N[C@H]1CC[C@H](n2c(=O)[nH]c3ccccc3c2=O)CC1)c1ccc2c(c1)nc(-c1ccoc1)n2C1CCCCC1 [Entry 1199],10 to 25
7,CC(NC(=O)c1ccc2c(c1)nc(-c1ccoc1)n2C1CCCCC1)C(=O)O (stereo not drawn) [Entry 1178],1 to 5
8,O=C(O)c1ccc(CN2CCC(CNC(=O)c3ccc4c(c3)nc(-c3ccoc3)n4C3CCCCC3)CC2)cc1 [Entry 1273],10 to 25
9,CC(C)(Oc1ccc2[nH]cc(CCNC(=O)c3ccc4c(c3)nc(-c3ccoc3)n4C3CCCCC3)c2c1)C(=O)O [Entry 1034],1 to 5
10,"CC(C)(Oc1ccc(C[C@H](NC(=O)c2ccc3c(c2)nc(-c2ccoc2)n3C2CCCCC2)C(N)=O)cc1)C(=O)O [Entry 1171, 2-[4-((S)-2-Carbamoyl-2-{[1-(1-cyclohexyl-2-furan-3-yl-1H-benzimidazol-5-yl)-methanoyl]-amino}-ethyl)-phenoxy]-2-methyl-propionic acid]",10 to 25
11,O=C(O)COc1ccccc1CN1CCCC(NC(=O)c2ccc3c(c2)nc(-c2ccoc2)n3C2CCCCC2)C1 (stereo not drawn) [Entry 1265],1 to 5
12,O=C(O)COc1ccc(CNC2CCCC(NC(=O)c3ccc4c(c3)nc(-c3ccoc3)n4C3CCCCC3)C2)cc1 (stereo not drawn) [Entry 1284],10 to 25
13,CC(CC(=O)O)NC(=O)c1ccc2c(c1)nc(-c1ccoc1)n2C1CCCCC1 (stereo not drawn) [Entry 1159],10 to 25
14,CCOC(=O)c1cccc(NC(=O)N[C@H]2CC[C@H](NC(=O)c3ccc4c(c3)nc(-c3ccoc3)n4C3CCCCC3)CC2)c1 [Entry 1208],10 to 25
15,CC(CC(=O)Nc1cccc(CC(=O)O)c1)NC(=O)c1ccc2c(c1)nc(-c1ccoc1)n2C1CCCCC1 (stereo not drawn) [Entry 1161],1 to 5
16,O=C(O)c1cccc(NC(=O)N2CCCC(NC(=O)c3ccc4c(c3)nc(-c3ccoc3)n4C3CCCCC3)C2)c1 (stereo not drawn) [Entry 1209],1 to 5
17,CCOC(=O)CCNC(=O)N1CCC(NC(=O)c2ccc3c(c2)nc(-c2ccoc2)n3C2CCCCC2)CC1 [Entry 1219],10 to 25
18,"Cc1nc([C@H](Cc2ccc(OCC(=O)O)cc2)NC(=O)c2ccc3c(c2)nc(-c2ccoc2)n3C2CCCCC2)cs1 [Entry 1131, {4-[(S)-2-{[1-(1-Cyclohexyl-2-furan-3-yl-1H-benzimidazol-5-yl)-methanoy]-amino}-2-(2-methyl-thiazol-4-yl)-ethyl]-phenoxy}-acetic Acid]",1 to 5
19,O=C(NC(C(=O)O)c1ccc2c(c1)OCO2)c1ccc2c(c1)nc(-c1ccoc1)n2C1CCCCC1 (stereo not drawn) [Entry 1009],1 to 5
20,O=C(NC1CCCC(n2c(=O)[nH]c3ccccc3c2=O)C1)c1ccc2c(c1)nc(-c1ccoc1)n2C1CCCCC1 (stereo not drawn) [Entry 1198],10 to 25
21,O=C(NC1CCCC(NC(=O)C2CCCCC2C(=O)O)C1)c1ccc2c(c1)nc(-c1ccoc1)n2C1CCCCC1 (stereo not drawn) [Entry 1224],10 to 25
22,COC(=O)[C@H](Cc1ccc(C(N)=O)cc1)NC(=O)c1ccc2c(c1)nc(-c1ccoc1)n2C1CCCCC1 [Entry 1086],1 to 5

# Same assay, conditions: IC50, Table 11
row,SMILES,IC50 [µM]
1,"O=C(O)c1ccc2[nH]cc(C[C@H](NC(=O)c3ccc4c(c3)nc(-c3ccoc3)n4C3CCCCC3)C(=O)O)c2c1 [Entry 11018, 3-((S)-2-Carboxy-2-{[1-(1-cyclohexyl-2-furan-3-yl-1H-benzoimidazol-5-yl)-methanoyl]-amino}-ethyl)-1H-indole-5-carboxylic Acid]",< 1
2,"NC(=O)c1ccc2[nH]cc(C[C@H](NC(=O)c3ccc4c(c3)nc(-c3ccoc3)n4C3CCCCC3)C(=O)O)c2c1 [Entry 11019, (S)-3-(5-carbamoyl-1H-indol-3-yl)-2-{[1-(1-cyclohexyl-2-furan-3-yl-1H-benzoimidazol-5-yl)-methanoyl]-amino}-propionic Acid]",< 1

# Same assay, conditions: IC50, Table 12
row,SMILES,IC50 [µM]
1,O=C(N[C@@H](Cc1c[nH]c2ccc(O)cc12)C(=O)O)c1ccc2c(c1)nc(-c1ccccn1)n2C1CCCCC1 [Entry 12011],< 1
2,CC(C)CCc1nc2cc(C(=O)N[C@@H](Cc3c[nH]c4ccc(O)cc34)C(=O)O)ccc2n1C1CCCCC1 [Entry 12014],< 1

# Same assay, conditions: IC50, Table 13
row,SMILES,IC50 [µM]
1,"CNC(=O)C(=O)Nc1ccc2[nH]cc(C[C@H](NC(=O)c3ccc4c(c3)nc(-c3ccoc3)n4C3CCCCC3)C(N)=O)c2c1 [Entry 13010, N^1-[3-((S)-2-Carbamoyl-2-{[1-(1-cyclohexyl-2-furan-3-yl-1H-benzimidazol-5-yl)-methanoyl]-amino}-ethyl)-1H-indol-5-yl]-N^2-methyl-oxalamide]",< 1

# Same assay, conditions: IC50, Table 14
row,SMILES,IC50 [µM]
1,"O=C(N[C@@H](Cc1c[nH]c2ccc(O)cc12)c1cscn1)c1ccc2c(c1)nc(-c1ccoc1)n2C1CCCCC1 [Entry 14007, 1-Cyclohexyl-2-furan-3-yl-1H-benzimidazole-5-carboxylic Acid [(S)-2-(5-Hydroxy-1H-indol-3-yl)-1-thiazol-4-yl-ethyl]-amide]",< 1
2,"CC(=O)Nc1nc([C@H](Cc2c[nH]c3ccc(O)cc23)NC(=O)c2ccc3c(c2)nc(-c2ccoc2)n3C2CCCCC2)cs1 [Entry 14006, 1-Cyclohexyl-2-furan-3-yl-1H-benzimidazole-5-carboxylic Acid [(S)-1-(2-Acetylamino-thiazol-4-yl)-2-(5-hydroxy-1H-indol-3-yl)-ethyl]-amide]",< 1

# Same assay, conditions: IC50, Table 16
row,SMILES,IC50 [µM]
1,"O=C(NC(Cc1ccc(O)c(C(=O)O)c1)C(=O)O)c1ccc2c(c1)nc(-c1ccoc1)n2C1CCCCC1 (racemic) [Entry 16058, 5-(2-Carboxy-2-{[1-(1-cyclohexyl-2-furan-3-yl-1H-benzimidazol-5-yl)-methanoyl]-amino}-ethyl)-2-hydroxy-benzoic Acid]",< 1
2,"NC(=O)Nc1ccc(C[C@H](NC(=O)c2ccc3c(c2)nc(-c2ccoc2)n3C2CCCCC2)C(=O)O)cc1 [Entry 16026, (S)-2-{[1-(1-Cyclohexyl-2-furan-3-yl-1H-benzoimidazol-5-yl)-methanoyl]-amino}-3-(4-ureidophenyl)-propionic Acid]",< 1
3,CC(O)c1cc(C[C@H](NC(=O)c2ccc3c(c2)nc(-c2ccoc2)n3C2CCCCC2)C(=O)O)ccc1O (mixture of isomers) [Entry 16052],< 1

# Same assay, conditions: IC50, Table 18
row,SMILES,IC50 [µM]
1,O=C(N[C@H](C(=O)O)[C@@H](O)c1ccc(-c2nnn[nH]2)cc1)c1ccc2c(c1)nc(-c1ccoc1)n2C1CCCCC1 [Entry 18002],< 1

# Same assay, conditions: IC50, Table 19
row,SMILES,IC50 [µM]
1,"Nc1nc([C@H](Cc2ccc(OCC(=O)O)cc2)NC(=O)c2ccc3c(c2)nc(-c2ccoc2)n3C2CCCCC2)cs1 [Entry 19002, [4-((S)-2-(2-Amino-thiazol-4-yl)-2-{[1-(1-cyclohexyl-2-furan-3-yl-1H-benzimidazol-5-yl)-methanoyl]-amino}-ethyl)-phenoxy]-acetic Acid]",< 1
